The full ranking holds about 110,000 compounds; the median of “z-score” is about -0.1, and the highest 2% start at about 2. The list shows a part of the results.
target: Metabotropic glutamate receptor 8 (Rattus norvegicus) (UniProt P70579); assay: rat mGluR8 modulators via GIRK flux, primary screen, cell-based, thallium flux, HTS (AID 488969); details: HEK293 rat mGluR8, GIRK (G protein-gated inwardly rectifying potassium channel) thallium flux, FluoZin2; at 10 µM; stronger effect = higher value; submaximal glutamate (EC20) added with thallium
Chain of UniProt P70579 (P70579 whole entry, looked up): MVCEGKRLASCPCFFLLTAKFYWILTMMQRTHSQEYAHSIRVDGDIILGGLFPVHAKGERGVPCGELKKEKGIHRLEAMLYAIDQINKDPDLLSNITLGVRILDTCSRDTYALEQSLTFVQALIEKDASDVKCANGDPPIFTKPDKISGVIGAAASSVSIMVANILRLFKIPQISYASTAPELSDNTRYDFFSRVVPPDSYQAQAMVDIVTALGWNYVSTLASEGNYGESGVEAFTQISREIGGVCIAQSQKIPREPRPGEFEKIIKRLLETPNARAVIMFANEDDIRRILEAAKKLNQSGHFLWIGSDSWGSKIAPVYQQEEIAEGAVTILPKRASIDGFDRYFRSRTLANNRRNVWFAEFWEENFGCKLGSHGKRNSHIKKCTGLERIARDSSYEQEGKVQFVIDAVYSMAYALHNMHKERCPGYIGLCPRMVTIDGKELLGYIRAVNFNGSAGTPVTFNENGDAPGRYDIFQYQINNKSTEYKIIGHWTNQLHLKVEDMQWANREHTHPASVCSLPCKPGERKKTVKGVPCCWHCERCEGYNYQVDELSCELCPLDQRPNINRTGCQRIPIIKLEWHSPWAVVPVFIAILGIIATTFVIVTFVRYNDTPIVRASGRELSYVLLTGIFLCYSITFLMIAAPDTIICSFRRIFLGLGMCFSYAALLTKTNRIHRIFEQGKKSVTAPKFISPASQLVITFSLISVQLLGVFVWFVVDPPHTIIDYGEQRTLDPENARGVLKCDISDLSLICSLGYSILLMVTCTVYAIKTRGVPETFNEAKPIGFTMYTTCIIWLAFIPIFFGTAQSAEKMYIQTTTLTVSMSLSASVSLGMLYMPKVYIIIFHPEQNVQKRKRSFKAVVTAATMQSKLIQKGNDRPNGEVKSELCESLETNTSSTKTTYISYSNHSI

Going from `CC(C)(Oc1ccc(CCNC(=O)c2ccc(-c3ccccc3)o2)cc1)C(=O)O` to `CCOc1ccc(NC(=O)c2ccccc2OC)cc1`, the z-score falls from -0.491 to -1.83.

Compared with `CC(=O)NC(CC(=O)NC1CCCCCC1)c1ccccc1` (stereo not drawn), `COc1ccccc1-c1cc(C(=O)N2CCCCC2)no1` is lower in z-score: 0.55 for the first, 0.227 for the second.

Going from `COc1ccccc1NC(=O)NCCCN1CCN(c2cccc(Cl)c2)CC1` to `O=C(CCSCc1ccccc1Cl)N1CCN(c2cccc(Cl)c2)CC1`, the z-score rises from -0.552 to 0.0702.

First: O=C(CCC(=O)OC(C(=O)c1ccccc1)c1ccccc1)Nc1ccccc1 (stereo not drawn)
Second: COC(=O)c1cccnc1NC(=S)NNC(=O)c1ccccc1
The z-score of the first is lower: -0.106 for the first, 0.44 for the second.

Going from `CCCn1c(NC(=O)C2CCN(S(=O)(=O)c3cccs3)CC2)nc2ccccc21` to `Cc1cnc(C)c(N2CCC(C(=O)NCc3cccs3)CC2)n1`, the z-score falls from 0.158 to -0.234.

Compared with `N#Cc1ccccc1OCC(=O)OCC(=O)c1ccc2c(c1)NC(=O)CO2`, `COc1ccc(OCC(=O)N/N=C2\CCc3ccccc32)cc1` is lower in z-score: -0.0953 for the first, -0.274 for the second.

First: CC1=CC2=NC(=O)CC(C)(C(=O)N(CC(=O)NC(C)(C)C)C3CCCC3)N2C=C1 (stereo not drawn)
Second: CCc1ccc(CNn2cnnc2SCC(=O)NC(C)(C)C)cc1
The z-score of the first is higher: 0.126 for the first, -0.032 for the second.

Compared with `CC1CC1C(=O)Nc1nc(-c2ccccc2)cs1` (stereo not drawn), `CC(C)OC(=O)c1sc2nc(-c3ccccc3)ccc2c1N` is higher in z-score: -0.311 for the first, -0.167 for the second.

Going from `Cc1c(CC=C(Cl)Cl)c(=O)[nH]c2c(C)cccc12` to `Cc1cccc(C)c1OCC(=O)N/N=C/c1ccc2c(c1)OCO2`, the z-score falls from 0.363 to -0.485.

First: CCOc1ccc(-c2nn(-c3ccccc3)cc2/C=C2\SC(=S)N(C3CCS(=O)(=O)C3)C2=O)cc1 (stereo not drawn)
Second: Cc1ccc(-n2c(C)cc(C(=O)Cn3nc(C(=O)O)c4ccccc4c3=O)c2C)cc1
The z-score of the first is lower: -0.352 for the first, -0.252 for the second.

First: CCN(CC)S(=O)(=O)c1cc(NC(=O)COC(=O)c2sc3ccccc3c2Cl)ccc1C
Second: Cc1ccc(C)c(-c2cc(C(=O)Nc3sc(C)c(C)c3C(N)=O)c3ccccc3n2)c1
The z-score of the first is higher: -0.0136 for the first, -0.16 for the second.

Going from `COc1ccc(-c2nc(C)ncc2-c2csc(C)n2)c(O)c1` to `COc1ccc(NC(=O)COc2ccc(/C=N/n3c(C)nnc3C)cc2OC)cc1`, the z-score falls from -0.348 to -0.586.

Compared with `CCOC(=O)c1cccc(NC(=O)Cn2cnc3c2c(=O)n(C)c(=O)n3C)c1`, `Cc1nnc(NC(=O)c2cccc(NC(=O)C(C)C)c2)s1` is higher in z-score: -0.516 for the first, 0.211 for the second.

First: C=CCn1c(-c2ccc3[nH]c(C)c(C)c3c2)n[nH]c1=S
Second: Cc1nc2cc(NS(=O)(=O)c3c(C)c(C)cc(C)c3C)ccc2s1
The z-score of the first is lower: -0.461 for the first, -0.223 for the second.

First: Cc1c(C(=O)Nc2ccc(N3CCOCC3)cc2)oc2ccccc12
Second: Cc1sc(NC(=O)c2ccco2)c(CN2CCN(c3ccc(F)cc3)CC2)c1C
The z-score of the first is higher: -0.15 for the first, -0.328 for the second.

Compared with `CCOC(=O)c1sc(NC(=O)c2cc3c(s2)CCC(C)C3)nc1C` (stereo not drawn), `Cc1cccc2c1-c1sc(C(=O)Nc3nccs3)cc1CO2` is higher in z-score: -0.0661 for the first, -0.00441 for the second.

Going from `Cc1nc(N[C@@H](Cc2ccccc2)C(=O)O)c2oc3ccccc3c2n1` to `Cc1nc(C)n(C(=O)N(c2ccccc2)c2ccccc2)n1`, the z-score rises from -0.144 to 0.16.

Compared with `COc1ccccc1N=CC1=C(O)CC(c2ccccc2)CC1=O` (stereo not drawn), `CC(C)(C)n1nnnc1C(c1ccccc1)N1CCc2ccccc2C1` (stereo not drawn) is lower in z-score: -0.194 for the first, -0.772 for the second.

Compared with `Cc1onc(-c2c(F)cccc2Cl)c1C(=O)Nc1sc2c(c1C#N)CCC(C(C)(C)C)C2` (stereo not drawn), `CC1CCCCN1CCNC(=O)c1cc2c(-c3ccccc3F)nn(C)c2s1` (stereo not drawn) is higher in z-score: -0.185 for the first, -0.0482 for the second.

Going from `COC(=O)C1=C(C)N(c2ccc(C)cc2)/C(=C/c2cccs2)C1=O` to `CCCOc1ccc(NC(=O)CC2C(=O)N(C)C(=S)N2Cc2cccs2)cc1` (stereo not drawn), the z-score falls from -0.108 to -0.253.

First: C/C(Cn1nc([N+](=O)[O-])cc1C)=N\NC(=O)c1cccc(Br)c1
Second: CSCCC(NC(=O)c1cccc([N+](=O)[O-])c1)C(=O)O (stereo not drawn)
The z-score of the first is higher: -0.134 for the first, -0.182 for the second.

Compared with `N#CC1=C(N)OC(c2ccccc2)=C(C#N)C1c1ccc2c(c1)OCO2` (stereo not drawn), `COc1ccc(/C=C2\N=C(c3c(-c4ccccc4)noc3C)OC2=O)cc1OC` is lower in z-score: -0.0787 for the first, -0.381 for the second.

Compared with `COC(=O)c1ccccc1NC(=O)N[C@@H](C)C(=O)OC`, `COc1cc(OC)cc(C(=O)N[C@H](C(=O)OCC(=O)Nc2ccc(C(N)=O)cc2)C(C)C)c1` is higher in z-score: 0.0183 for the first, 0.0447 for the second.

Going from `O=C1CC(N2CCOCC2)C(=O)N1c1ccc2c(c1)OCO2` (stereo not drawn) to `O=c1c2ccccc2oc2nc3n(c(=O)c12)CCCS3`, the z-score falls from -0.00271 to -0.498.

Compared with `CC1=C(C(=O)OC(C)C)C(c2c(O)ccc3ccccc23)NC(=O)N1` (stereo not drawn), `O=C(OCc1nc2ccccc2c(=O)[nH]1)c1cccs1` is lower in z-score: 0.549 for the first, -0.141 for the second.

Compared with `Cc1ccc(CCNC(=O)Cn2cccc2)cc1`, `CCOC(=O)CNC(=O)C(Cc1ccccc1)NS(=O)(=O)c1cccs1` (stereo not drawn) is higher in z-score: 0.233 for the first, 0.447 for the second.

Compared with `CCOc1cc(C)c(Cl)cc1S(=O)(=O)NCC1CCCO1` (stereo not drawn), `Cc1cc(C)c(NC(=O)C2CSCCS2)c(C)c1` (stereo not drawn) is higher in z-score: -1.28 for the first, -0.163 for the second.

First: CC(=O)Nc1ccc(NS(=O)(=O)c2ccc3ccccc3c2)cc1
Second: Cc1ccccc1NC(=O)CN(C)S(=O)(=O)c1cccc2cccnc12
The z-score of the first is lower: -0.075 for the first, 0.523 for the second.

First: COc1ccc(C2C(C(=O)N3CCN(c4ccc(OC)cc4)CC3)c3ccccc3C(=O)N2C)cc1 (stereo not drawn)
Second: CCOC(=O)C1=C(C)N=c2s/c(=C/c3ccccc3)c(=O)n2C1c1ccc(OC)c(OC)c1 (stereo not drawn)
The z-score of the first is higher: 0.463 for the first, -0.183 for the second.

Compared with `CN(C)S(=O)(=O)c1ccc(NC(=O)CNc2cc(S(=O)(=O)N3CCCC3)ccc2OCC(F)(F)F)cc1`, `CCc1ccc(/C=C/C(=O)c2ccc(S(=O)(=O)N(C)C)cc2)cc1` is lower in z-score: 0.0677 for the first, -0.379 for the second.

First: Cc1cccc(C)c1NC1=NC(=S)N(c2ccc(N(C)C)cc2)C1(C)C
Second: Cc1ccccc1Nc1nc(N)nc(CSc2nnnn2-c2ccccc2)n1
The z-score of the first is higher: 1.87 for the first, -0.414 for the second.

Compared with `O=C(/C=C/c1ccccc1Cl)N1CCCN(C(=O)/C=C/c2ccccc2Cl)CC1`, `CC(=O)c1cccc(Nc2nc(-c3cccc([N+](=O)[O-])c3)cs2)c1` is higher in z-score: -0.173 for the first, 0.000867 for the second.

First: CC(C)CSc1ncc(-c2cccc(C(F)(F)F)c2)cn1
Second: COC(=O)C(NC(=O)c1ccco1)(Nc1ccc(Br)cn1)C(F)(F)F (stereo not drawn)
The z-score of the first is higher: -0.00497 for the first, -0.589 for the second.

Going from `O=C(O)Cc1ccc2ocnc2c1` to `CCOC(=O)c1c(NC(=O)CN2CCCCC2)sc2c1CCC(C=O)=C2Cl`, the z-score rises from -0.599 to -0.365.
